The structures appear in SMILES notation. *1 amine or outer side, *2 acyl side, *3 side chain or, on linkers, in order; H or OH if unused. Where a SMILES comes first, the peptide text is derived from it. [ ]: non-standard residue; d: D form. The star is where a group is joined. ξ: configuration not given here. Pro(3S,4R-CMe2) = CC1(C)[C@H]2[C@@H](C(=O)O)NC[C@H]21; ξLeu(ψCOCO) = CC(C)CC(N[*:1])C(=O)C(=O)[*:2]; X49 = O=C(c1ccccc1)[C@@H]1CCCC[C@H]1C(=O)*; X4 = CCCCC(N[*:1])C(=O)C(=O)[*:2]; Hyp = O=C(O)[C@@H]1C[C@@H](O)CN1; X2 = CCCC(N[*:1])C(=O)C(=O)[*:2]; X38 = CC(C)(C)C(Cc1ccccc1)C(=O)*; X44 = O=C(O)CC(CC(=O)*)c1ccccc1; dPhg = N[C@@H](C(=O)O)c1ccccc1; X55 = O=C(c1ccccc1Oc1ccccc1)*; CH2CO2tBu = CC(C)(C)OC(=O)C*; Chg = N[C@H](C(=O)O)C1CCCCC1; Phg = N[C@H](C(=O)O)c1ccccc1; Tle = CC(C)(C)[C@H](N)C(=O)O; X42 = O=C(c1cc(F)c(F)cc1Cl)*; X51 = O=C(O)C1CCC(C(=O)*)CC1; X39 = O=C(O)C1(C(=O)*)CC1; X40 = CCC(C(=O)*)c1ccccc1; X41 = O=C(Cc1ccc(Br)cc1)*; ξChg = NC(C(=O)O)C1CCCCC1; ξPhg = NC(C(=O)O)c1ccccc1; Carboxymethyl = O=C(O)C*; X34 = Cc1cccc(CC(=O)*)c1; X36 = O=C(CC1CC2CCC1C2)*; X43 = Cc1cccc(C(=O)*)c1C; X48 = O=C(Cc1cccc(O)c1)*; X27 = O=C(OC1CCCCC1)*; X53 = CC1CCCCC1C(=O)*; ξNle = CCCCC(N)C(=O)O; Bn = c1ccc(C*)cc1; tBu = CC(C)(C)*; MEM = COCCOC* Bounds are passed on as bounds.

The values that follow come from patent publication US7592316B2, “Peptides as NS3-serine protease inhibitors of hepatitis C virus” (Schering Corporation, priority 2000, dated 2009).

One assay has as its target HCV NS3/NS4A protease (strain 1a) (Hepatitis C virus genotype 1a, UniProt P27958). As to the kind of experiment: biochemical. The following applies: Compounds prepared by Solid Phase Synthesis, Table 3; read-out: Ki* CLASS.
One may read the Ki as a dissociation constant, usually derived from enzyme kinetics or from competition with a known ligand. With `CCCCC(NC(=O)CNC(=O)C(=O)C(CCC)NC(=O)[C@@H]1C[C@@H](OCC(=O)O)CN1C(=O)C(NC(=O)Cc1cccc(C)c1)C1CCCCC1)C(N)=O` (stereo partly drawn) (X34-[ξChg][Hyp](Carboxymethyl)[X2]G[ξNle]-NH2), the Ki is > 1000 nM.
Consider `CCCCC(NC(=O)CNC(=O)C(=O)C(CCC)NC(=O)[C@@H]1C[C@@H](OCOCCOC)CN1C(=O)C(NC(=O)CC1CC2CCC1C2)C1CCCCC1)C(N)=O` (stereo partly drawn) (X36-[ξChg][Hyp](MEM)[X2]G[ξNle]-NH2), for which the Ki lay in the range of 101 to 1000 nM.
As to `CCCCC(NC(=O)CNC(=O)C(=O)C(CCC)NC(=O)[C@@H]1C[C@@H](OCc2ccccc2)CN1C(=O)C(NC(=O)C(Cc1ccccc1)C(C)(C)C)C1CCCCC1)C(N)=O` (stereo partly drawn) (X38-[ξChg][Hyp](Bn)[X2]G[ξNle]-NH2), the inhibition constant (Ki) was > 1000 nM.
The same measure, in the same setting: in the case of `CCCCC(NC(=O)CNC(=O)C(=O)C(CCC)NC(=O)[C@@H]1C[C@@H](OCOCCOC)CN1C(=O)C(NC(=O)C1(C(=O)O)CC1)C1CCCCC1)C(N)=O` (stereo partly drawn) (X39-[ξChg][Hyp](MEM)[X2]G[ξNle]-NH2) it was > 1000 nM.
For `CCCCC(NC(=O)CNC(=O)C(=O)C(CCC)NC(=O)[C@@H]1C[C@@H](OCc2ccccc2)CN1C(=O)C(NC(=O)C(CC)c1ccccc1)C1CCCCC1)C(N)=O` (stereo partly drawn) (X40-[ξChg][Hyp](Bn)[X2]G[ξNle]-NH2), the Ki lay in the range of 101 to 1000 nM.
The same measure, in the same setting: next, `CCCCC(NC(=O)CNC(=O)C(=O)C(CCC)NC(=O)[C@@H]1C[C@@H](OCC(=O)OC(C)(C)C)CN1C(=O)C(NC(=O)Cc1ccc(Br)cc1)C1CCCCC1)C(N)=O` (stereo partly drawn) (X41-[ξChg][Hyp](CH2CO2tBu)[X2]G[ξNle]-NH2): > 1000 nM; `CCCC(NC(=O)[C@@H]1C[C@@H](OCc2ccccc2)CN1C(=O)C(NC(=O)c1cc(F)c(F)cc1Cl)C1CCCCC1)C(=O)C(=O)NCC(=O)N[C@@H](C(N)=O)c1ccccc1` (stereo partly drawn) (X42-[ξChg][Hyp](Bn)[X2]G[dPhg]-NH2): > 1000 nM; `CCCC(NC(=O)[C@@H]1C[C@@H](OCc2ccccc2)CN1C(=O)C(NC(=O)c1cccc(C)c1C)C1CCCCC1)C(=O)C(=O)NCC(=O)N[C@@H](C(N)=O)c1ccccc1` (stereo partly drawn) (X43-[ξChg][Hyp](Bn)[X2]G[dPhg]-NH2): 101 to 1000 nM.
With `CCCCC(NC(=O)CNC(=O)C(=O)C(CCC)NC(=O)[C@@H]1C[C@@H](OCc2ccccc2)CN1C(=O)C(NC(=O)CC(CC(=O)O)c1ccccc1)C1CCCCC1)C(N)=O` (stereo partly drawn) (X44-[ξChg][Hyp](Bn)[X2]G[ξNle]-NH2), the Ki was > 1000 nM.
On the same count and under the same terms, in the case of `CCCCC(NC(=O)CNC(=O)C(=O)C(CCC)NC(=O)[C@@H]1C[C@@H](OCC(=O)OC(C)(C)C)CN1C(=O)C(NC(=O)Cc1cccc(O)c1)C1CCCCC1)C(N)=O` (stereo partly drawn) (X48-[ξChg][Hyp](CH2CO2tBu)[X2]G[ξNle]-NH2) it was > 1000 nM; in that of `CCCCC(NC(=O)[C@@H]1C[C@@H](OCc2ccccc2)CN1C(=O)C(NC(=O)[C@@H]1CCCC[C@H]1C(=O)c1ccccc1)C1CCCCC1)C(=O)C(=O)NCC(=O)NC(C(N)=O)c1ccccc1` (stereo partly drawn) (X49-[ξChg][Hyp](Bn)[X4]G[ξPhg]-NH2), > 1000 nM; in that of `CC(C)CC(NC(=O)[C@@H]1C[C@@H](OC(C)(C)C)CN1C(=O)[C@@H](NC(=O)C1CCC(C(=O)O)CC1)C1CCCCC1)C(=O)C(=O)NCC(=O)N[C@H](C(N)=O)c1ccccc1` (stereo partly drawn) (X51-[Chg][Hyp](tBu)[ξLeu(ψCOCO)]G[Phg]-NH2), > 1000 nM.
On the same count and under the same terms, next, `CCCCC(NC(=O)C(CCCC)NC(=O)CNC(=O)C(=O)C(CCC)NC(=O)[C@@H]1C[C@@H](OCc2ccccc2)CN1C(=O)C(NC(=O)C1CCCCC1C)C1CCCCC1)C(N)=O` (stereo partly drawn) (X53-[ξChg][Hyp](Bn)[X2]G[ξNle][ξNle]-NH2): 101 to 1000 nM; `CCCC(NC(=O)[C@@H]1C[C@@H](OCc2ccccc2)CN1C(=O)C(NC(=O)C1CCCCC1C)C1CCCCC1)C(=O)C(=O)NCC(=O)NC(C(N)=O)c1ccccc1` (stereo partly drawn) (X53-[ξChg][Hyp](Bn)[X2]G[ξPhg]-NH2): 101 to 1000 nM; `CCCCC(NC(=O)[C@@H]1C[C@@H](OCc2ccccc2)CN1C(=O)C(NC(=O)C1CCCCC1C)C1CCCCC1)C(=O)C(=O)NCC(=O)NC(C(N)=O)c1ccccc1` (stereo partly drawn) (X53-[ξChg][Hyp](Bn)[X4]G[ξPhg]-NH2): 101 to 1000 nM.
Same read-out and setting: next, `CCCC(NC(=O)[C@@H]1C[C@@H](OCc2ccccc2)CN1C(=O)C(NC(=O)c1ccccc1Oc1ccccc1)C1CCCCC1)C(=O)C(=O)NCC(=O)NC(C(N)=O)c1ccccc1` (stereo partly drawn) (X55-[ξChg][Hyp](Bn)[X2]G[ξPhg]-NH2): > 1000 nM.

Staying with this assay, now noted: Table 5; HCV NS3/NS4A protease, spectrophotometric assay, 30° C., pH 6.5; read-out: Ki* Range.
On to `CCCC(NC(=O)[C@@H]1[C@H]2[C@@H](CN1C(=O)[C@@H](NC(=O)OC1CCCCC1)C(C)(C)C)C2(C)C)C(=O)C(=O)NCC(=O)N[C@H](C(=O)N(C)C)c1ccccc1` (stereo partly drawn) (X27-[Tle][Pro(3S,4R-CMe2)][X2]G[Phg]-NMe2), for which the Ki is 1 to 100 nM.
`CCCCC(NC(=O)[C@@H]1[C@H]2[C@@H](CN1C(=O)[C@@H](NC(=O)OC1CCCCC1)C(C)(C)C)C2(C)C)C(=O)C(=O)NCC(=O)N[C@H](C(=O)N(C)C)c1ccccc1` (stereo partly drawn) (X27-[Tle][Pro(3S,4R-CMe2)][X4]G[Phg]-NMe2): the Ki fell in the range of 1 to 100 nM.
